# Measured values reported in ChEMBL document CHEMBL1157539, “Thousands of chemical starting points for antimalarial lead identification” (Nature, 2010).
# Several values for one entry are separate records, joined by “and”; a condition that tells them apart may be missing. Identical values can stand only once. Over roughly 13,000 compounds, “IFI” has its median near 4; the highest 2% begin near 17. Some of the results follow.
# Assay: GSK_TCMDC: Inhibition Frequency Index (IFI). The number of non-kinase HTS assays where a compound showed > 50 % inhibition, expressed as a percentage of the number of such assays in which the compound was tested (-0 is zero)
# Assay type: functional
row,SMILES,IFI
1,CCc1cccc(OCCCON2C(=N)N=C(N)NC2(C)C)c1,3.55%
2,Cc1nc2ccc3nc(NC(=O)c4ccno4)sc3c2s1,1.89%
3,CCC(C)CN1CCN(c2cc(NC(=O)c3cccs3)ccn2)C(C)C1 (stereo unspecified),5.71%
4,CCn1c(-c2nonc2N)nc2c(-c3cccc(NC(=O)Nc4ccc(Cl)cc4)c3)ncc(OCCCN)c21,19.3%
5,Cc1cc(O)c(CN2CCN(Cc3cccs3)CC2)cc1C(C)C,6%
6,O=C(Nc1ccc(OC2CCN(Cc3ccccc3)C2)c(Cl)c1)c1ccco1 (stereo unspecified),3.28%
7,COc1ccc2nccc([C@@H](O)CN3CCC(NCc4ccc5nsnc5c4)CC3)c2c1,-0%
8,N#Cc1ccc(C(=O)Nc2cc(-c3cccc(O)c3)cc3[nH]ncc23)cc1,0%
9,CC1CNC(c2ccc(NC(=O)Nc3ccc(C4=NC(C)CN4)cc3)cc2)=N1 (stereo unspecified),0.79%
10,CCCc1cc(NC2CCN(C)CC2)nc(Nc2cccc(OC)c2)n1,2.94%
11,Cc1cccc2nc(-c3cccc(-c4ccc(NC(=O)c5cnn6cccnc56)cc4)c3)[nH]c12,6.54%
12,COc1ccc2ccccc2c1CCCCN1CCN(CC(c2ccc(F)cc2)N2CCC(N3CCCC3)CC2)CC1 (stereo unspecified),13.6%
13,COc1ccc2nccc([C@@H](O)CN3CCC(NCc4[nH]c5ccccc5c4F)CC3)c2c1,5.19%
14,CC(=O)N1N=C(c2ccccc2)Sc2c1nc(-c1ccc(Cl)cc1)n2C(C)=O,4.41%
15,CC(C)C[C@H](NC(=O)c1ccc(F)cc1)C(=O)N[C@H](/C=N/NC(=O)c1ccccc1)CCc1ccccc1,5.31%
16,N=C(N)NN=Cc1ccc2c(c1)Cc1ccccc1-2,5.8%
17,Cc1cccc2nc(-c3cccc(-c4cccc(NC(=O)Nc5cccc(C#N)c5)c4)c3)[nH]c12,8%
18,COc1ccc(NC(=O)CCNc2cc(C)nc(Nc3ccccc3)n2)cc1,0%
19,Nc1cccc(CNCc2cccc(-c3cccc(-c4nc5cc(F)ccc5[nH]4)c3)c2)c1,8.41%

row,SMILES,IFI
1,CN(c1ccc(NC(=O)c2ccc(F)cc2)cc1)C1CCN(Cc2cccc(F)c2)C1 (stereo unspecified),5.71%
2,CCc1ccc(C2CCN(CCCCNC(=O)c3ccc(-c4ccc(Cl)cc4)cc3)CC2)c(O)c1,8.49%
3,Cc1cnc(C[S+]([O-])c2nc3cc(C(F)(F)F)ccc3[nH]2)cc1OCc1ccccc1 (stereo unspecified),2.94%
4,O=C(/C=C/c1ccc(F)cc1)NC1CCC(CCN2CCCN(c3ccc(C(F)(F)F)cn3)CC2)CC1 (stereo unspecified),5.11%
5,Cn1nc2ccc3ccccc3c2nc1=N,10.3%
6,COc1ccc(NC(=O)c2ccc(NC(=O)c3ccc(Cl)cc3)cc2)cc1N1CCN(C)CC1,1.79%
7,CCNc1cc(C(=O)N[C@@H](Cc2ccccc2)[C@H](O)CNC(C)(C)CCCC(C)C)cc(N2CCCC2=O)c1,2.96%
8,COc1ccccc1CNC(=O)c1ccc(N2CCN(c3ccncc3)CC2)cn1,9.09%
9,CCc1c(CCNCCCCCCNCCc2ccc3c(c2C)OCO3)ccc2c1OCO2,14.1%
10,COc1ccc(CNC(=O)c2cnc3c(O)cccc3c2Nc2cccc(NC(=O)c3ccc(F)cc3)c2)cc1,6.98%
11,Cc1ccc(N(CCC(=N)N)Cc2ccccc2)cc1,4.29%
12,CN(c1ccccc1C(=O)Nc1ccccc1Oc1ccccc1)S(=O)(=O)c1ccccc1,0%
13,CCN(CC)CCN(Cc1ccc(-c2ccc(C(F)(F)F)cc2)cc1)C(=O)Cn1c(CCc2c(F)cc(F)cc2F)nc(=O)c2ccccc21,5.04%
14,O=C(Cc1ccc(NC(=O)c2ccc(O)c(-c3ccc(Cl)c(Cl)c3)c2)cc1)NCCN1CCOCC1,0.74%
15,COc1cc(CNCCCCCCNCc2cc(OC)c(OC)c3ccccc23)c2ccccc2c1OC,7.41%
16,CN(C1CCC(NC(=O)/C=C/c2ccccc2)CC1)C1CC2(CCN(C(=O)OC(C)(C)C)CC2)c2ccccc21 (stereo unspecified),3.03%
17,CCn1ncc(Cl)c1CN(C)S(=O)(=O)c1ccc2ccccc2c1,11.1%
18,CCOc1cccc2nc(NCCCNCc3ccc(Cl)c(Cl)c3)cc(NCCCNCc3ccc(Cl)c(Cl)c3)c12,8.39%
19,COc1ccc2c(=NN=Cc3ccc(F)cc3)cc(C)[nH]c2c1,2.26%

row,SMILES,IFI
1,COCCn1c(SC(C)C(=O)Nc2cc(C(F)(F)F)ccc2Cl)nc2ccccc2c1=O (stereo unspecified),2.08%
2,N=C(/N=C(/NCCCCCCN/C(=N\C(=N)Nc1ccc(Cl)cc1)N1CCCCC1)N1CCCCC1)Nc1ccc(Cl)cc1,10.9%
3,CCC(C)NCCC(c1ccccc1)c1ccccc1O (stereo unspecified),2.33%
4,CC(=O)Nc1ccc(CN2Cc3ccc(NC(=O)Nc4ccc(Oc5ccccc5)cc4)cc3C2)s1,0.67%
5,COc1cc(NC(=O)N2CCOC(CCN3CCC4(CCc5ccccc54)CC3)(c3ccc(Cl)c(Cl)c3)C2)cc(OC)c1OC (stereo unspecified),7.53%
6,COc1ccc2c(NN=Cc3ccncc3)ccnc2c1,1.46%
7,Cc1ccc(-c2nc(Nc3ccncc3)c3ccccc3n2)s1,0.78%
8,CCc1ccc(C2CCN(CCCCNC(=O)c3ccc(NC(=O)c4ccc(Cl)cc4)cc3)CC2)c(OCCO)c1,5.31%
9,CN(C)c1ccc(-c2ccc(C(=O)NC3CCN(Cc4cccc(C(F)(F)F)c4)CC3)s2)cc1,11.1%
10,CCc1ccc(CN(CCCOc2cccc(CC(=O)NCc3c[nH]cn3)c2)Cc2ccc(-n3ccnc3)cc2)cc1,8.89%
11,O=C(Cc1ccccc1)NC(c1ccccc1)c1ccc2cccnc2c1O (stereo unspecified),8.62%
12,CC(C)c1cn2c3c(cc(C(=O)N[C@@H](Cc4ccccc4)[C@H](O)CNC4CCCCC4)cc13)N(C)S(=O)(=O)CC2,2.94%
13,CCOC(=O)c1nc(-c2cc(Cl)nc(Cl)c2)[nH]c1NC(=S)NCc1ccc(NS(C)(=O)=O)cc1,3.88%
14,O=C(/C=C/c1ccc(Cl)c(Cl)c1)NCC(CCCN1CCC(c2c[nH]c3ccccc23)CC1)c1ccccc1 (stereo unspecified),9.35%
15,COc1ccc2nccc([C@@H](O)CN3CCC(NCc4cc5cccc6c5n(c4=O)CCC6)CC3)c2c1,0.74%
16,CN1CCCC1CCNC(=O)[C@H](CC1CCCCC1)NC(=O)c1ccc(O)c(-c2ccc(Cl)c(Cl)c2)c1 (stereo partly specified),5.07%
17,O=C(NCCN1CCCCC1)c1cccc(Nc2nccc(Nc3ccc(Oc4ccccc4)cc3)n2)c1,5.07%
18,COc1ccc2ncc(F)c(CCN3CC(O)C(CNCc4nc5c(cc4Cl)OCC(=O)N5)C3)c2n1 (stereo unspecified),2.88% (2×) and 1.92%
